Measured values published in patent publication US11116735B2, “Use of substituted benzylideneguanidine derivatives as synergists for polymyxin antibiotics” (GUANGZHOU INSIGHTER BIOTECHNOLOGY CO., LTD., priority 2015, dated 2021).

Tested on: various colistin sulfate-resistant Gram-negative bacteria
Test: MIC by doubling dilution, summary over resistant species
Settings: various concentrations of compound 3

CC(C)Oc1ccc(C=NN=C(N)NN=Cc2ccc(OC(C)C)cc2)cc1 [Compound 3]
Change of the MIC of colistin sulfate where compound 3 was employed: decreased to various extents, in an obvious dosage-dependent way
